According to the supplement of paper PMC11417369:
This is one part of the list.

The sequences below were run on PfHDP1 homeodomain (GST-tagged) (assay: gcPBM binding intensity (ln(normalized median fluorescence intensity)); higher = stronger DNA binding).
Method in brief: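 Each value is the highest Masliner-normalised natural-log median intensity across replicate spots of either orientation of a probe. The probes were primer-extended double-stranded 36-bp intergenic genomic sequences on an Agilent 4 × 180k array, alongside negative controls, exposed for 1 h to GST-tagged P. falciparum DNA-binding domains expressed in E. coli. Bound protein was picked up with Alexa488 anti-GST antibody and scanned at 488 nm.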

Point of comparison: “GTACGTTTCTCCAGACTGCACTATACGACTCGTACA [GTGCAC_site9771]”, “gcPBM binding intensity (ln)” value 7.22. Against it:
- GTGTGAGCACATTCGGGAGAGTTTTTTTTTTTTTTT [CACACA_negctrl_site1776] — lower, 7
- TATAAAAATAAGCACACACACAAATATAGATTTATT [CACACA_site6558] — lower, 6.73
- ATATATATATAAATATGTACATATATTTATTTCTTT [XGTACX_site3784] — higher, 8.54
- ATATATCATGCCAAGGGTACAAATGTGTAGTTGAAA [XGTACX_site2820] — lower, 6.64
- TTTTTTAAATATTATTTTTATGAGTAAATATATTAT [GTGCAC_negctrl_site277] — lower, 6.15
- AAAACAAACAAAAAAAAAAAAAAAAATATCAATCTA [TGCATGCA_negctrl_site203] — lower, 5.92
- GACGTGGAAAAAAAAACACACACAAAAAAAAAAAAA [CACACA_site9324] — lower, 6.04
- TGAACATCATTTTTATGTACACACACATATACGTTG [XGTACX_site3864] — lower, 6.59
- TAAAATAAAATAAGTAGTACATATATAATTATATAT [XGTACX_site6733] — lower, 6.62
- TTTTTTTTTTTTTTTACACACTGCATACAAGAAAAA [CACACA_site5642] — lower, 6.46
- AAAATACGAATATAAACATGCACCATATAGAACAAA [TGCATGCA_site925] — higher, 8.35
- TTTTTACAAAAAAAAAAAAAAAAAATAAAAATAAAT [CACACA_negctrl_site1738] — lower, 5.57
- TACAAATATAGATGCACACACATATACATACCTATA [CACACA_site7094] — higher, 9.29
- TATATATATATATATACATGCATTTTTGTTTGCTTA [TGCATGCA_site256] — higher, 9.55
- TTTTTTTTTTCTCCTGCATGCAGCATTTATATATTA [TGCATGCA_site390] — lower, 6.97
- GACAACGTTTCAATGTGTACATATTTATAATATATA [XGTACX_site2427] — lower, 6.54
- TATATATATATATGTACACACATCAATCATATTAAC [CACACA_site1946] — higher, 9.26
- ATTGAAAAACCGTTTAGTACATATCATCACGTTTGT [XGTACX_site1295] — lower, 6.04
- AATTTTAAATTTAATTTACACACTTTTCATAGCATT [CACACA_site9264] — lower, 6.61
- TATAAAACACACACACATATATATATATATTTATAT [TGCATGCA_negctrl_site48] — lower, 7.02
- ATTTACAAAAATTTTGTATAAAGGGATTTTAAAATG [TGCATGCA_negctrl_site350] — lower, 6.79
- TAATTACCATATGGTACACACATATTTATAGGTATA [CACACA_site7603] — lower, 6.49
- CGCGCACCCAGACACACACACACACCCATATATATA [CACACA_site2203] — lower, 7.19
- GATAAAATAATATATAGTACTTTTTTAAAATAAATA [XGTACX_site522] — lower, 5.98
- ACGTATAATATGTACACACACATATATACCAAAAAA [CACACA_site4661] — lower, 6.64
- GAAAAAAAAAAAAAAAGTACATTCTCTATTTCATGT [XGTACX_site3209] — lower, 5.8
- ATAAATTTAAATAGGAGTACACAGCTTTATATTTTG [XGTACX_site4176] — lower, 6.58
- TATGTAATAAAATATACACACAATATACTTATATAT [CACACA_site3682] — lower, 6.3
- ATTTTTAATGGATAAGTGCATAATATTATGATGCAA — higher, 9.68
- AGCCACGGGTTATATACACACATAATCAAATAAAAT [CACACA_site6117] — lower, 6.58
- ACATAATATATATATTGTACAAATATATTATTGTTA [XGTACX_site3385] — lower, 6.35
- AAAAAATTATATAATAATAGAACTATACATTTTATT [GTGCAC_negctrl_site645] — lower, 5.91
- CACAAATATACAAATACACACAAATATACTCATATA [CACACA_site5339] — lower, 6.58
- AGAAAGATGCAAGAAACATGCAAAAAAAAAATTTCT [TGCATGCA_site725] — lower, 6.38
- TGTATTCCTTTTTATAGTACAATTTAAAAGTATAAA [XGTACX_site2045] — lower, 6.44
- GTTATACAAAATAATACATGCATGTCCTACATATAT [TGCATGCA_site320] — lower, 6.93
- TAAAGAAATTCTTCATGTACTTATTATTTCTCTTTT [XGTACX_site6817] — lower, 6.48
- TATGGAATAAATTTATCCATACATCTTATAACATAT [XGTACX_negctrl_site500] — lower, 6.47
- TACATAAATTAATAGTCACACACGTATTTTTTATAT [CACACA_site8806] — lower, 6.31
- AGCTATATAAATAATACATGCATTGTTCAGGTATTT [TGCATGCA_site964] — lower, 6.29
- ATTTATAATATTCAAGTGCATATATATTTTTTACTT — higher, 8.2
- TATGTATTAAATTTTACACACATGATTCTCTATATA [CACACA_site2298] — lower, 6.62
- AATTAAATATTATAAACACACATATATATTATTTTT [CACACA_site865] — lower, 6.26
- AAACGAACATATAAATGTACATATATATACATATAT [XGTACX_site8086] — lower, 6.52
- TACAAAAAAAATGTATTTAGGACATATATATGTTTA [XGTACX_negctrl_site455] — lower, 6.39
- ATTGTAAATATAGAAGTGCAAAAGGGTATGAAATGA — higher, 9.96
- TACATAAAATATATCACACATATAATATATATATAT [CACACA_site5834] — higher, 8.54
- AAAAAAAAAAAAAAATATAAATATATATATATATAT [GTGCAC_negctrl_site28] — higher, 9.18
- ATAATATTTCTTACCTTTGGATGTTCTAATTTTTTT [CACACA_negctrl_site1317] — lower, 6.67
- ATATATATATATATATGTACATATATTCGATTATTA [XGTACX_site557] — higher, 9.2
- GAATTTCGATATATGTGTACGCATTTGTATTATAGG [XGTACX_site6332] — lower, 6.7
- TACATATTGCACAAATAAAAAAGAACAAAAAAAAAA [CACACA_negctrl_site1200] — higher, 10.9
- AAAAATAACATATAAACACACATATATATATATATA [CACACA_site3802] — higher, 9.31
- TACTTTATATTATATATATATATATATATATATATA [CACACA_negctrl_site1765] — higher, 9.28
- TATATAAAATAATAATGTACTCATTAAAATTATAGA [XGTACX_site4507] — lower, 6.06
